Assay results: PubChem BioAssay AID1508623 (National Center for Advancing Translational Sciences (NCATS), 2021)
Out of some 48,000 compounds screened, about 450 (0.94%) were called active. The shares of active, inactive and inconclusive entries below differ from those in the screen. Calls follow the shape of the dose curve; as a rule, active = well fitted inhibition curve with a large enough effect; inconclusive = small, poorly fitted or top-dose-only effect; inactive = no such curve, though single readings can be large or run the other way. Potencies beside an inconclusive call are fits to weak or partial responses and may not hold up.

Test: Primary qHTS for Identification of Small Molecule Inhibitors of Huntingtin Promoter Activity; also: nearly all actives have a fitted effect of over 50% in size
Settings: HEK293 HTT promoter firefly luciferase reporter (activity 0% = vehicle and -100% = no light), 24 h; series mostly up to 57.5 µM
In short: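 Quantitative HTS used concentration series of up to 57.5 uM final on HEK293 luciferase reporter cells, 24 h at 37 degrees C. Readout was Dual-Glo firefly luminescence.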
Potency is read from the fitted curve at half-maximal effect; tags tell the direction and shape of the fitted curve.

Potency, inactive:
COc1cccc2c(NCc3ccccc3)nc(-n3c(N)nc4ccccc43)nc12
O=S(=O)(NCCc1csc(-c2cccc(F)c2)n1)c1cc(F)ccc1F
COC(=O)c1c(NC(=O)CCCOc2ccc(C)cc2)sc2c1CCCC2
CCCn1ccc2c(OCC(=O)Nc3ccccc3C(=O)OCC)cccc2c1=O
O=C(c1ccc(F)cc1)C1CCN(CCn2c(=O)[nH]c3ccccc3c2=O)CC1
CCOc1ccc(CCNC(=O)Cn2c(-c3cccs3)cc3ccccc32)cc1OCC
CC(C)CNc1ncnc2onc(-c3ccc(Cl)cc3)c12
Cc1ccc(S(=O)(=O)C2(C(=O)Nc3ccc(Cl)c(C(F)(F)F)c3)CC2)cc1
O=C(NCCCCN1CCOCC1)c1cc2ccccc2o1
O=C(Cn1c(=O)oc2cc(S(=O)(=O)NCc3ccccc3)ccc21)Nc1cccc(F)c1
NC[C@H]1O[C@H](O[C@@H]2[C@@H](O)[C@@H](O[C@H]3O[C@H](CO)[C@@H](O)[C@H](N)[C@@H]3O)[C@H](N)C[C@@H]2N)[C@H](O)[C@@H](O)[C@H]1O
O=C(Nc1c(C(=O)N2CCN(c3ccccc3F)CC2)oc2ccccc12)c1cccc(F)c1
Cc1ccccc1Nc1c(-c2c(F)cccc2Cl)nc2ccc(Br)cn12

Potency, inconclusive:
Cc1ccccc1Cn1c(SCc2ccc(C(=O)N3CCCCC3)cc2)nc2ccncc21 17.8 µM [inhibitor, partial curve, poor fit]
COc1ccc(CNC(=O)CC(C)CC2=NS(=O)(=O)c3ccccc3N2)cc1 (centres undefined) 12.6 µM [inhibitor, partial curve, poor fit]
CCOc1ccc(S(=O)(=O)Nc2ccc3c(c2)CCCN3C(=O)c2cccs2)cc1 39.8 µM [inhibitor, single point]
CCOC(=O)C1CCCN(C(=O)Cn2ncc3c(C)n(Cc4ccc(Cl)cc4)c(C)c3c2=O)C1 (centres undefined) 2 µM [inhibitor, full curve, poor fit]
Cc1ccc(NS(=O)(=O)c2ccc3c(c2)CCN3C(=O)C2CC2)c(C)c1 25.1 µM [inhibitor, single point]
Cc1ccc(S(=O)(=O)c2nc(-c3cccs3)oc2SCc2ccc(F)cc2)cc1 22.4 µM [inhibitor, partial curve, poor fit]
CC(C)c1ccccc1NC(=O)C(Cc1c[nH]c2ccccc12)NC(=O)OC(C)(C)C (centres undefined) 22.4 µM [inhibitor, partial curve, poor fit]
CCOc1ccc(C(=O)Oc2c(Sc3ccccc3)c(C)nn2C(C)(C)C)cc1OCC 28.2 µM [inhibitor, partial curve, poor fit]
Nc1ncnc2c1nc(Cl)n2[C@@H]1O[C@H](CO)[C@@H](O)[C@@H]1O 21.7 µM [inhibitor, partial curve, poor fit]
COc1ccccc1N1CCN(S(=O)(=O)c2ccc(F)c(C(=O)Nc3ccc(Cl)cc3C(F)(F)F)c2)CC1 28.2 µM [inhibitor, partial curve, poor fit]
COc1ccc(-c2nnc(SC(C)C(=O)O)o2)cc1 (centres undefined) 39.8 µM [inhibitor, single point]
CC(=O)N1CCCc2cc(S(=O)(=O)N3CCCC(C(=O)NC(C)C)C3)ccc21 (centres undefined) 17.8 µM [inhibitor, single point]
COc1ccc(N2C(=O)C(CC(=O)Nc3ccccc3)N(CCC3=CCCCC3)C2=O)cc1 (centres undefined) 31.6 µM [inhibitor, partial curve, poor fit]
Cc1[nH]c2ccccc2c1C1(O)C(=O)N(Cc2ccccc2)c2ccc(Cl)cc21 (centres undefined) 25.1 µM [inhibitor, partial curve, poor fit]
Cc1cc(-c2ccc(S(=O)(=O)Nc3ccc(Cl)cc3)cc2)on1 15.8 µM [inhibitor, partial curve, poor fit]
CC(C)Oc1ccc(CNC(=O)c2sc3ncccc3c2-n2cccc2)cc1 28.2 µM [inhibitor, partial curve, poor fit]
O=S(=O)(c1ccc(Cl)cc1)c1nc(-c2cccs2)oc1SCc1ccccc1F 14.1 µM [inhibitor, partial curve]
NC(=O)Nc1cc(-c2cccc(F)c2)sc1C(=O)N[C@H]1CCCNC1 0.0968 µM [inhibitor, full curve]
COc1ccc(-c2ccc(NS(=O)(=O)c3cc(C)c(C)cc3C)cc2)nn1 20 µM [inhibitor, single point]
O=C(NCCCN1CCN(c2cccc(Cl)c2)CC1)c1ccc2nc(Cc3ccccc3)oc2c1 20 µM [inhibitor, partial curve, poor fit]
CCCCNC(=O)c1ccc2c(c1)N=C(CC)c1ccccc1S2 14.1 µM [inhibitor, partial curve, poor fit]
CC1=C(c2ccc(C)c(C)c2)S(=O)(=O)N(Cc2ccc(C(=O)Nc3cc(F)ccc3F)cc2)C1=O 15.8 µM [inhibitor, partial curve]
CCCCc1ccc(NC(=O)CSc2nc(=O)[nH]c3c2CCCC3)cc1 39.8 µM [inhibitor, single point]
CCOc1ccc(S(=O)(=O)N2CCN(Cc3nc4ccc(C)cc4o3)CC2)cc1 31.6 µM [inhibitor, partial curve, poor fit]
O=C(CSc1nc2c([nH]c3ccccc32)c(=O)n1-c1ccccc1F)Nc1cccc(C(F)(F)F)c1 28.2 µM [inhibitor, single point]
COC(=O)CCN(c1ccccc1)C(CNS(=O)(=O)c1ccccc1)c1ccccc1 (centres undefined) 39.8 µM [inhibitor, single point]
Cc1nc2cc(-c3cccc(F)c3)nn2c(C)c1CCC(=O)NC(C)c1ccccc1 (centres undefined) 17.8 µM [inhibitor, partial curve, poor fit]
CCCCOc1ccccc1C1CC(=O)Nc2cc(C)c(C)cc21 (centres undefined) 39.8 µM [inhibitor, partial curve, poor fit]
COc1ccc(-c2nnc(SCC(=O)Nc3c(C)cccc3C)nc2-c2ccc(OC)cc2)cc1 3.98 µM [inhibitor, partial curve, poor fit]
COc1ccc(OC)c(C(=O)CC2(O)C(=O)N(Cc3ccccc3C)c3ccccc32)c1 (centres undefined) 22.4 µM [inhibitor, single point]
Cc1c(C(=O)N2CCOCC2)oc2c1-c1nn(CC(=O)NCc3cccc(F)c3)cc1CC2 17.8 µM [inhibitor, partial curve, poor fit]
COc1ccc(-n2ccnc2SCC(=O)Nc2ccc3c(c2)OCO3)cc1 39.8 µM [inhibitor, single point]
COc1ccc(-c2nc(SCC(=O)Nc3ccc4c(c3)OCCO4)c(-c3ccc(F)cc3)[nH]2)cc1 39.8 µM [inhibitor, single point]
Oc1ccc(-c2ccc(-c3cc(Nc4cccc(CNC5CC5)c4)n[nH]3)cc2)c(O)c1 8.63 µM [inhibitor, partial curve, poor fit]
Cc1cccc(CNC(=O)c2ccc(N3Cc4ccccc4Oc4ncccc43)s2)c1 25.1 µM [inhibitor, single point]
COc1cc(C(=O)Nc2ccc(NC(=O)c3ccc(C(C)(C)C)cc3)cc2)cc(OC)c1OC 12.6 µM [inhibitor, partial curve]
COC(=O)c1ccc(C2Nc3c(C)cccc3-c3cc(C)nn32)cc1 (centres undefined) 22.4 µM [inhibitor, partial curve, poor fit]
Cc1oc(-c2ccc(C(=O)Nc3ccc(F)cc3)cc2)nc1COc1ccccc1 2 µM [inhibitor, full curve, poor fit]
COc1ccc(CCNC(=O)C(=O)NCC(c2ccco2)S(=O)(=O)c2ccc(C)cc2)cc1 (centres undefined) 39.8 µM [inhibitor, single point]
Cc1cccc(CS(=O)(=O)c2ncc(Cl)c(C(=O)Nc3nnc(C(C)C)s3)n2)c1 39.8 µM [inhibitor, single point]
O=C(CCn1c(=O)c2cccn2c2cccnc21)N1CCN(c2cccc(C(F)(F)F)c2)CC1 35.5 µM [inhibitor, single point]
COc1ccc(OC)c(/C=C/c2nc3ccccc3c(=O)n2-c2ccc(F)c(Cl)c2)c1 39.8 µM [inhibitor, single point]
COc1ccc(C(=O)/C=C/c2cn(CC(O)CN3CCc4ccccc43)c3ccccc23)cc1OC (centres undefined) 39.8 µM [inhibitor, single point]
Nc1nc2c(ncn2COC(CO)CO)c(=O)[nH]1 43.2 µM [inhibitor, single point]
CCOC(=O)c1ccc(NC(=O)Cn2cc(C(=O)C3CC3)c3ccccc32)cc1 15.8 µM [inhibitor, partial curve, poor fit]
Cc1ccc(-n2ncc3c(NCCCN4CCOCC4)ncnc32)cc1C 39.8 µM [inhibitor, partial curve, poor fit]
